Measured values taken from the supplement of paper PMC3334620.
Over roughly 33,000 sequences, “E-score (-0.5 to 0.5)” has its median near -0.041; the highest 2% begin near 0.37. Some of the results follow.

biological target: T1, Ecm22 (UniProt Q05958); assay: PBM E-score (8-mer binding enrichment) (E-score (-0.5 to 0.5)); higher = stronger / more preferred TF binding; most listed sequences are background and not binding sites; details: protein concentration: 200 nM; construct: GST-full length
T1 sequence: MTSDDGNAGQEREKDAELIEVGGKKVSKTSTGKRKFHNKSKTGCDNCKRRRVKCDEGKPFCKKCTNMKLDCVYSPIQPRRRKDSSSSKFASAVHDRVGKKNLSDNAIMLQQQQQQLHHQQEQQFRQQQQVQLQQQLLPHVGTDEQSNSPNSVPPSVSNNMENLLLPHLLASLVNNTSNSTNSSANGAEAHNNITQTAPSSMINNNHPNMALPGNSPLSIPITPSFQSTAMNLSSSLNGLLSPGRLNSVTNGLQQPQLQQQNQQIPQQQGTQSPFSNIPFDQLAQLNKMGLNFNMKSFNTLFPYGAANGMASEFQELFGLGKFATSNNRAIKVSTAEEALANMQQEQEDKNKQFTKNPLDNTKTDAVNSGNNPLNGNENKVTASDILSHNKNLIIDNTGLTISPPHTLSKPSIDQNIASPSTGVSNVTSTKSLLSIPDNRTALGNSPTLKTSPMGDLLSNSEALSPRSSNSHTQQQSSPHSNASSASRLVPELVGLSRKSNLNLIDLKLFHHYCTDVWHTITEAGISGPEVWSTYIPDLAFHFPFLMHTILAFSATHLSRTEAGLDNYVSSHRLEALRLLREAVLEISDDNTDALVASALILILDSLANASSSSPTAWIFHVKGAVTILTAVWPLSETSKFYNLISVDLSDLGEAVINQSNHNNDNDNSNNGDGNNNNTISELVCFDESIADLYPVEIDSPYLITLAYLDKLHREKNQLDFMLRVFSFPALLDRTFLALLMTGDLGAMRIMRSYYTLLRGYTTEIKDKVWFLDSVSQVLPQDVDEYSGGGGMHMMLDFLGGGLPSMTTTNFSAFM
Experimental: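 Universal 'all 10-mer' protein binding microarrays (Agilent AMADID 015681) probed with GST-tagged S. cerevisiae TFs (full-length or DBD) made by in vitro transcription/translation (PURExpress), about 100-200 nM. Bound TF was detected with fluorescent anti-GST. Each ungapped 8-mer (which stands for itself and its reverse complement) is scored by the PBM enrichment score (E-score), a modified Wilcoxon-Mann-Whitney statistic from -0.5 to +0.5, computed with the Universal PBM Analysis Suite. Scale: above 0.35 generally sequence-specific binding.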

Row | Sequence | PBM E-score
1 | AGCTGAAC | -0.00484
2 | AAATCTGG | 0.11
3 | GGTAAACA | 0.129
4 | AACGGTAT | 0.166
5 | CGCACAGC | 0.0507
6 | CGCGGATC | 0.00423
7 | AATGGGTA | 0.186
8 | GCCCCTCC | -0.0475
9 | CCCAGTAC | -0.0775
10 | CCTGCATA | -0.254
11 | AGGACTTA | -0.23
12 | GCCTTTAA | -0.198
13 | AATTCGGC | -0.141
14 | CGTCATAC | 0.227
15 | GAGAGAGA | 0.00674
16 | GCTTCGAA | 0.0639
17 | AGACAACT | -0.17
18 | CTGCGCGA | 0.0164
19 | ATATGTGG | -0.274
20 | CGATTAGC | 0.259
21 | AACGGATC | 0.234
22 | ATCATTCA | 0.0374

Row | Sequence | PBM E-score
23 | CGCTAGAG | 0.00533
24 | CTTCAGGC | -0.272
25 | CAAGGGTG | -0.244
26 | GAGGTGTA | -0.0982
27 | CTACCGTC | -0.12
28 | CTAGAGAG | -0.2
29 | GTGTAAGA | -0.11
30 | GGAACGAA | 0.489
31 | ACCCCTTA | -0.137
32 | CGGGTTAC | 0.231
33 | ACTTTGCT | -0.0924
34 | TAAGGTAA | 0.0729
35 | GCTGCAGC | -0.186
36 | GCGGATTA | 0.00231
37 | AGGAAGAA | -0.156
38 | AGCTTTAC | 0.111
39 | ACGGGGAC | 0.0581
40 | GAAAGAAC | -0.0474
41 | CGTTGACA | 0.139
42 | GCCCAGCA | -0.182
43 | CAGAGACG | -0.00646
44 | AGTGAGAG | -0.252

Row | Sequence | PBM E-score
45 | ACTACCAA | 0.0258
46 | AGATAACC | -0.137
47 | ACCGCGGA | 0.0811
48 | ATCTTCCA | -0.199
49 | GCCTGTAA | -0.209
50 | ATATCTAC | 0.0491
51 | CGGTTGTC | 0.12
52 | GCGACTAA | 0.155
53 | ATTACCTA | -0.0935
54 | AGCTCGAC | 0.0368
55 | CCCAGGCC | -0.178
56 | AGTTATAG | -0.238
57 | GCCAGAAC | -0.0164
58 | CTTGGCAC | -0.227
59 | ACGTTTGA | 0.157
60 | ATATAGCC | -0.00324
61 | CGGGTAGC | -0.0454
62 | CTTGGCCA | -0.316
63 | CACCAGCC | -0.0515
64 | CTTTGACA | -0.148
65 | ACGGATAC | 0.227
66 | TATAGCGA | 0.237

Row | Sequence | PBM E-score
67 | GGGCCATA | -0.0499
68 | CTTCGCAA | 0.183
69 | TCTCTTAA | 0.118
70 | AAACATGA | -0.0336
71 | ACCGGTAG | -0.013
72 | GATGGGTA | 0.0221
73 | AAAGTGGC | -0.0493
74 | AATAATCG | 0.0721
75 | ATCAGGTC | 0.113
76 | GCTCATAA | 0.0224
77 | AGTGTCCC | -0.0455
78 | CCGTCCCA | -0.311
79 | ATGATAAT | 0.0227
80 | ATGCTCGA | -0.103
81 | GGCCTGGA | -0.405
82 | CACAAGTC | -0.11
83 | CAAGCGTG | -0.087
84 | TCTATACA | -0.084
85 | GACTAAAC | -0.0495
86 | CTGTACTC | -0.0433
